In test [1] the test system is HSkMC (human skeletal muscle cells). In words: cytotoxicity call (relative viability < 0.9). The settings on record: 10 µM.
The test system of test [2] is HepG2. Kind of test: cytotoxicity call (relative viability < 0.9). The settings on record: 10 µM.
The test system of test [3] is S. aureus RN4220. In words: growth inhibition call (relative growth <= 0.2). Conditions: 50 µM.

The other results are listed elsewhere or left out.

For the compound `CC(C)CC#Cc1ccc2c(c1)O[C@@H](CN(C)S(=O)(=O)c1cccc(F)c1)[C@H](C)CN([C@H](C)CO)S2(=O)=O`, the cytotoxicity call in test [1] and in test [2] was “inactive” in each case. Besides, the growth inhibition call in test [3] is “inactive”.

`C[C@@H]1CCCCO[C@@H](CN(C)Cc2ccncc2)[C@H](C)CN([C@H](C)CO)C(=O)c2cc(NC(=O)Nc3ccc(C(F)(F)F)cc3)ccc2O1`: the cytotoxicity call in test [1] was “inactive”. The cytotoxicity call in test [2] is “active”. The growth inhibition call in test [3] is “inactive”.

Consider `C[C@@H]1CN([C@H](C)CO)C(=O)c2cc(NC(=O)CCCN(C)C)ccc2O[C@H]1CN(C)C(=O)Nc1ccc(F)cc1`, for which the cytotoxicity call in test [1] and in test [2] was “inactive” each time. Besides, the growth inhibition call in test [3] is “inactive”.

In the case of `CCS(=O)(=O)Nc1ccc2c(c1)C(=O)N(C)[C@@H]1CC[C@@H](CC(=O)NCc3ccc(OC)cc3)O[C@H]1CO2`, the cytotoxicity call in test [1] and in test [2] was “inactive” in each case. Further, in test [3], the growth inhibition call is “inactive”.

In the case of `C[C@H](CO)N1C[C@H](C)[C@H](CN(C)Cc2ccccc2)Oc2ccc(NC(=O)Nc3cccc4ccccc34)cc2CC1=O`, the cytotoxicity call in test [1] is “inactive”. The cytotoxicity call in test [2] is “active”. In test [3], the growth inhibition call was “inactive”.

In the case of `C[C@H](CO)N1C[C@H](C)[C@H](CN(C)S(=O)(=O)c2ccccc2)Oc2ncc(C#Cc3ccc(F)cc3)cc2C1=O`, the cytotoxicity call in test [1] and in test [2] was “inactive” in each case. The growth inhibition call in test [3] is “inactive”.

For the compound `C[C@H](CO)N1C[C@H](C)[C@@H](CN(C)C(=O)Nc2ccc(C(F)(F)F)cc2)OCCCC[C@H](C)Oc2ccc(NC(=O)NC3CCCCC3)cc2C1=O`, the cytotoxicity call in test [1] and in test [2] was “inactive” throughout. In test [3], the growth inhibition call was “inactive”.

As for `CN(C)C1C(O)=C(C(N)=O)C(=O)C2(O)C(O)=C3C(=O)c4c(O)ccc(Cl)c4C(O)C3CC12.Cl` (stereo not drawn), the cytotoxicity call in test [1] and in test [2] was “inactive” each time. Further, the growth inhibition call in test [3] is “inactive”.

As for `COc1ccc(NC(=O)Nc2ccc3c(c2)C(=O)N([C@@H](C)CO)C[C@@H](C)[C@@H](CN(C)Cc2ccc(C(F)(F)F)cc2)O3)cc1`, in test [1], the cytotoxicity call was “inactive”. In addition, the cytotoxicity call in test [2] is “active”. Besides, in test [3], the growth inhibition call was “inactive”.

As to `C[C@@H]1CN([C@H](C)CO)C(=O)Cc2cc(NC(=O)Nc3ccc(C(F)(F)F)cc3)ccc2O[C@@H]1CN(C)Cc1ccncc1`, the cytotoxicity call in test [1] is “inactive”. Moreover, the cytotoxicity call in test [2] was “active”. Further, the growth inhibition call in test [3] was “inactive”.

On to `COc1ccc(NC(=O)Nc2ccc3c(c2)C(=O)N([C@H](C)CO)C[C@@H](C)[C@H](CN(C)C(=O)C2CCCCC2)OCCCC[C@H](C)O3)cc1`, for which the cytotoxicity call in test [1] and in test [2] was “inactive” throughout. Besides, in test [3], the growth inhibition call is “inactive”.

As for `C[C@H]1CCCCO[C@H](CN(C)C(=O)C2CCCCC2)[C@@H](C)CN([C@@H](C)CO)C(=O)c2cc(NS(=O)(=O)c3cccs3)ccc2O1`, the cytotoxicity call in test [1] and in test [2] was “inactive” in each case. Besides, the growth inhibition call in test [3] was “inactive”.

`C[C@H]1CN([C@@H](C)CO)S(=O)(=O)c2ccc(C#CC3CCCC3)cc2O[C@@H]1CN(C)C(=O)Cc1ccncc1`: the cytotoxicity call in test [1] and in test [2] was “inactive” in each case. Also, the growth inhibition call in test [3] is “inactive”.

For `O=C(O)[C@H](O)c1ccccc1`, the cytotoxicity call in test [1] and in test [2] was “inactive” in each case. Besides, the growth inhibition call in test [3] was “inactive”.

As to `C[C@@H]1CN([C@H](C)CO)S(=O)(=O)c2ccc(C#CC(C)(C)O)cc2O[C@H]1CN(C)Cc1ccc(F)cc1`, the cytotoxicity call in test [1] and in test [2] was “inactive” in each case. For the same compound, the growth inhibition call in test [3] was “inactive”.

On to `Cc1ccc(S(=O)(=O)Nc2ccc3c(c2)C(=O)N([C@H](C)CO)C[C@H](C)[C@@H](CN(C)Cc2ccncc2)OCCCC[C@H](C)O3)cc1`, for which the cytotoxicity call in test [1] and in test [2] was “inactive” throughout. Moreover, the growth inhibition call in test [3] is “inactive”.

Regarding `C[C@H]1CN([C@@H](C)CO)C(=O)Cc2cc(NC(=O)c3ccncc3)ccc2O[C@@H]1CN(C)S(=O)(=O)c1cccs1`, the cytotoxicity call in test [1] and in test [2] was “inactive” throughout. Further, in test [3], the growth inhibition call was “inactive”.

`[N-]=[N+]=NCc1ccccc1C[C@]1(C(=O)NCCN2CCOCC2)COC(c2ccc(OCCCO)cc2)=N1`: the cytotoxicity call in test [1] and in test [2] was “inactive” each time. For the same compound, the growth inhibition call in test [3] was “inactive”.

Regarding `Cc1noc(C)c1NC(=O)N(C)C[C@H]1Oc2ncc(C#CCN(C)C)cc2C(=O)N([C@H](C)CO)C[C@H]1C`, the cytotoxicity call in test [1] and in test [2] was “inactive” in each case. In test [3], the growth inhibition call is “inactive”.

`CO[C@H]1CN(C)C(=O)c2cc(NC(=O)C3CCOCC3)ccc2OC[C@@H](C)N(Cc2cccnc2)C[C@H]1C`: the cytotoxicity call in test [1] and in test [2] was “inactive” in each case. In test [3], the growth inhibition call is “inactive”.

For `c1cc(CNCCN2CCOCC2)ccn1`, the cytotoxicity call in test [1] and in test [2] was “inactive” throughout. Moreover, the growth inhibition call in test [3] was “inactive”.

On to `C[N+](C)(CCOc1ccccc1)Cc1ccccc1.O=C(O)c1cc2ccccc2c(Br)c1O`, for which the cytotoxicity call in test [1] and in test [2] was “inactive” throughout. Moreover, the growth inhibition call in test [3] was “inactive”.

For the compound `C[C@@H]1CN([C@H](C)CO)C(=O)c2cc(C#CC3CCCC3)cnc2O[C@@H]1CN(C)C(=O)Cc1ccccn1`, the cytotoxicity call in test [1] and in test [2] was “inactive” throughout. Further, the growth inhibition call in test [3] is “inactive”.

On to `NS(=O)(=O)c1cc2c(cc1Cl)NC(C1CC3C=CC1C3)NS2(=O)=O` (stereo not drawn), for which the cytotoxicity call in test [1] and in test [2] was “inactive” in each case. Also, the growth inhibition call in test [3] is “inactive”.

In the case of `C[C@H](CO)N1C[C@H](C)[C@H](CN(C)Cc2ccc(Oc3ccccc3)cc2)Oc2ccc(NC(=O)Nc3ccc(C(F)(F)F)cc3)cc2CC1=O`, the cytotoxicity call in test [1] and in test [2] was “active” in each case. For the same compound, the growth inhibition call in test [3] is “inactive”.

On to `Cc1noc(C)c1S(=O)(=O)N(C)C[C@@H]1Oc2ccc(NC(=O)Nc3ccc4c(c3)OCO4)cc2CC(=O)N([C@H](C)CO)C[C@H]1C`, for which the cytotoxicity call in test [1] and in test [2] was “inactive” in each case. In addition, the growth inhibition call in test [3] is “inactive”.

The values above are taken from the antibiotic and cytotoxicity screens of Wong et al. (2023).
